T1: rhBTLA-Fc (Sino Biological, #11896-H02H) (human, UniProt Q7Z6A9 31-157)
T1 construct: Bought protein; also called recombinant human BTLA; not shown: Fc part of the bought fusion protein
T1 sequence: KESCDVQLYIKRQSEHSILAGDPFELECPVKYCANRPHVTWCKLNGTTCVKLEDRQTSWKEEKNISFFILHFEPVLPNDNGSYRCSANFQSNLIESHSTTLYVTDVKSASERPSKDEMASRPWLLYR

T2: rhICOS-Fc (R&D, #169-CS-050) (human, UniProt Q9Y6W8 21-141)
T2 construct: Bought protein; also called recombinant human ICOS; not shown: Fc part of the bought fusion protein
T2 sequence: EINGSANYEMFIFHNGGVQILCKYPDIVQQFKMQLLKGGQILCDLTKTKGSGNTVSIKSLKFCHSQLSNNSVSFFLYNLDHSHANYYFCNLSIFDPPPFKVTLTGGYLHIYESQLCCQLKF

T3: rat CTLA-4 in PHA-stimulated CD4+ rat T cells (rat, UniProt P09793 36-223 (mouse entry))
T3 construct: Cells were permeabilised before staining
T3 chain: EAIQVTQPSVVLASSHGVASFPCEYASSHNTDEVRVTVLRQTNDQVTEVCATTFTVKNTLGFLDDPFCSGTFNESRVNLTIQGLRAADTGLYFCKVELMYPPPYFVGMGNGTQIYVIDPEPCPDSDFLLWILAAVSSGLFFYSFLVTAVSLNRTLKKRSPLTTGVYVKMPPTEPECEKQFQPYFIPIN


Columns and labels:
[1] = target: T4, cynomolgus CTLA-4 in activated cynomolgus T cells (cynomolgus, UniProt P16410 36-223 (human entry)); assay: flow cytometry, intracellular staining of activated cynomolgus CD8+ T cells
T4 construct: also called cynomolgus (Macaca fascicularis) CTLA-4
Method: The binding characteristics of the antibody AGEN1884 to cynomolgus (Macaca fascicularis) CTLA-4 was analyzed by a flow cytometry analysis. Cynomolgus PBMCs (Biomedical Primate Research Centre, Netherlands) isolated via ficoll gradient were activated using plate-bound 8 μg/ml anti-CD3 (BD, 557052) and 0.1 μg/ml anti-CD28 antibodies (eBioscience, Cat. 16-0289-85) in the presence of 50 U/ml IL-2 (BioLegend, 589106) for 3 days in RPMI-1640 media supplemented with 10% fetal bovine serum, 10 mM HEPES and 1× Pen/Strep-Glutamine at 37° C. and 5% CO₂. Following activation, the cells were incubated with an anti-CD8a antibody (eBioscience, 9043-0087-120) diluted 1:100 in FACS buffer (PBS with 2% FBS) for 30 minutes at 4° C. The cells were then washed with FACS buffer twice and applied to the Cytofix/Cytoperm procedure of the BD Bioscience Kit (51-2090KZ) according to the manufacturer's protocol. Serial dilutions of 1:3 from 9 to 0.037 μg/ml of AGEN1884, a reference anti-CTLA-4 IgG₁ antibody, and an IgG₁ isotype control were applied to the cells. The samples were suspended in 200 μl of FACS buffer and analyzed using the FACS Diva flow cytometer (BD Biosciences).

[2] = target: T5, rhPD-1-Fc (R&D Systems, #1086-PD) (human, UniProt Q15116 partial chain); assay: suspension array (Luminex) selectivity assay, antigen coupled to microspheres
T5 construct: Bought protein; also called recombinant human PD-1; not shown: Fc part of the bought fusion protein
Method: (§1) The selectivity of AGEN1884 for CTLA-4 was assessed against other members of the immunoglobulin superfamily using suspension array technology as a multiplex assay. A number of immunoglobulin superfamily members were chemically coupled to Luminex® microspheres using standard NHS-ester chemistry. Purified materials of AGEN1884, a reference anti-CTLA-4 IgG₁ antibody, and an IgG₁ isotype control were diluted in assay buffer (Roche 11112589001) to 10 ng/ml, 100 ng/ml, and 1000 ng/ml. Briefly, 25 μl of each dilution was incubated in the dark (20° C., 650 rpm) with 1500 Luminex® microspheres in 5 μl assay buffer for 1 hour in 96 half-well filter plates (Millipore, MABVN1250). Luminex® microspheres were coupled with recombinant human CTLA-4-Fc (R&D Systems, #7268-CT), recombinant cynomolgus CTLA-4-Fc (Sino Biological, #90213-C02H), rhCD28-Fc (R&D, #342-CD-200), rhICOS-Fc (R&D, #169-CS-050), rhBTLA-Fc (Sino Biological, #11896-H02H), rhPD-1-Fc (R&D Systems, #1086-PD), or recombinant cynomolgus PD-1-Fc (produced in-house) via amine coupling with the COOH bead surface. Standard curves were generated using duplicates of 25 μl of a human IgG₁ standard (Sigma, 15154) with 1:3 dilution series (0.08-540 ng/ml). Detection was carried out using 60 μl of goat anti-human IgG F(ab)₂ labeled with R-PE (2.5 μg/ml; JIR 109-116-098, AbDSerotec Rapid RPE Antibody Conjugation Kit, LNK022RPE) and another hour of incubation time (20° C., 650 rpm). Plates were analyzed using a Luminex® 200 system (Millipore). A total of 100 beads were counted per well in a 48 μl sample volume. PE MFI values were used to determine specific or nonspecific binding to the recombinant proteins mentioned above.

[3] = target: T1, rhBTLA-Fc (Sino Biological, #11896-H02H); assay: as above
Method: as §1

[4] = target: T2, rhICOS-Fc (R&D, #169-CS-050); assay: as above
Method: as §1

[5] = target: T6, rhCD28-Fc (R&D, #342-CD-200) (human, UniProt P10747 19-152); assay: as above
T6 construct: Bought protein; also called recombinant human CD28; not shown: Fc part of the bought fusion protein
Method: as §1

[6] = target: T7, recombinant cynomolgus CTLA-4-Fc (Sino Biological, #90213-C02H) (cynomolgus, UniProt P16410 36-161 (human entry)); assay: as above
T7 construct: Bought protein; also called recombinant cynomolgus (rc) CTLA-4; not shown: Fc part of the bought fusion protein
Method: as §1

[7] = target: T4, cynomolgus CTLA-4 in activated …; assay: flow cytometry, Pacific Blue labeled antibody on permeabilised PHA-stimulated CD4+ T cells
Method: (§2) Further, peripheral blood mononuclear cells (PBMCs) from human, cynomolgus monkey (Indochinese), rat, or mouse were aliquoted into wells of a 96-well round bottom tissue culture plate (1×10⁵ cells/well) and stimulated for 4 days in RPMI-1640 supplemented with 10% fetal bovine serum, 15 mM HEPES, 100 IU/ml penicillin, […] streptomycin, 2 mM L-glutamine, 100 IU/ml IL-2 (Peprotech), and 1 μg/ml phytohemagglutinin (PHA) (Roche) at 37° C. and 5% CO₂. After stimulation, cells were washed and 5% heat-inactivated human AB serum (Sigma-Aldrich) was added to block Fc receptors and prevent non-specific binding of antibodies. Cells were washed again and re-suspended in 100 μl of a diluted APC-conjugated anti-CD4 antibody (clone OKT4, GK15, or W3/25; Biolegend). After incubating for 45 minutes in the dark, cells were washed three times and permeabilized using a FoxP3/Transcription Factor Staining Buffer Set (eBioscience) following the manufacturer's instructions. After permeabilization, cells were incubated with serial dilutions of fluorescently labeled (Pacific Blue™) AGEN1884w or an isotype control antibody ranging from 0.00003 μg/ml to 10 μg/ml for 45 minutes at 4° C. in the dark. The cells were washed twice before flow cytometric analysis using a Becton Dickinson LSRFortessa™. Data were analyzed using FlowJo software (Version 10).

[8] = target: T8, mouse CTLA-4 in PHA-stimulated CD4+ mouse T cells (mouse, UniProt P09793 36-223); assay: as above
T8 construct: Cells were permeabilised before staining
Method: as §2

[9] = target: T3, rat CTLA-4 in PHA-stimulated CD4+ rat T …; assay: as above
Method: as §2

T5 sequence (Q15116 25-167 limits assumed): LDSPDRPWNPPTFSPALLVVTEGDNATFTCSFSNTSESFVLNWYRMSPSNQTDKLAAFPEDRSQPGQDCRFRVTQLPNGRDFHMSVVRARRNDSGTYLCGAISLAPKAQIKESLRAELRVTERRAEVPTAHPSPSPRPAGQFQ
T6 sequence (P10747 19-152 limits assumed): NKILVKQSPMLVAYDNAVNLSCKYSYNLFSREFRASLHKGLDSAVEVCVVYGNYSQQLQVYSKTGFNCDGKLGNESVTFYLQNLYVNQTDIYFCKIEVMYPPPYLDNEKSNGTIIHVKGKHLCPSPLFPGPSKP

binding result [1]	binding result [6]	binding result [7]	Binder	binding result [2]	binding result [3]	binding result [4]	binding result [5]	binding result [8]	binding result [9]
binds	binds	–	AGEN1884 (antibody, human IgG1, Human IgG1; also called anti-CTLA-4 antibody AGEN1884) heavy: EVQLVESGGGLVKPGGSLRLSCAASGFTFSSYSMNWVRQAPGKGLEWVSSISSSSSYIYYADSVKGRFTISRDNAKNSLYLQMNSLRAEDTAVYYCARVGLMGPFDIWGQGTMVTVSSASTKGPSVFPLAPSSKSTSGGTAALGCLVKDYFPEPVTVSWNSGALTSGVHTFPAVLQSSGLYSLSSVVTVPSSSLGTQTYICNVNHKPSNTKVDKRV[sequence of human IgG1 Fc omitted] light: EIVLTQSPGTLSLSPGERATLSCRASQSVSRYLGWYQQKPGQAPRLLIYGASTRATGIPDRFSGSGSGTDFTLTITRLEPEDFAVYYCQQYGSSPWTFGQGTKVEIKRSVAAPSVFIFPPSDEQLKSGTASVVCLLNNFYPREAKVQWKVDNALQSGNSQESVTEQDSKDSTYSLSSTLTLSKADYEKHKVYACEVTHQGLSSPVTKSFNRGEC	no binding (tested: 10 ng/ml, 100 ng/ml, and 1000 ng/ml)	no binding (tested: 10 ng/ml, 100 ng/ml, and 1000 ng/ml)	no binding (tested: 10 ng/ml, 100 ng/ml, and 1000 ng/ml)	no binding (tested: 10 ng/ml, 100 ng/ml, and 1000 ng/ml)	–	–
–	–	binds	AGEN1884w (antibody, human IgG1, kappa, Human IgG1; AGEN1884w-FortiCHO and AGEN1884w-PowerCHO are AGEN1884w produced in two growth media; the label used is kept in each row; also called AGEN1884w-FortiCHO) heavy: EVQLVESGGGLVKPGGSLRLSCAASGFTFSSYSMNWVRQAPGKGLEWVSSISSSSSYIYYADSVKGRFTISRDNAKNSLYLQMNSLRAEDTAVYYCARVGLMGPFDIWGQGTMVTVSSASTKGPSVFPLAPSSKSTSGGTAALGCLVKDYFPEPVTVSWNSGALTSGVHTFPAVLQSSGLYSLSSVVTVPSSSLGTQTYICNVNHKPSNTKVDKRV[sequence of human IgG1 Fc omitted] light: EIVLTQSPGTLSLSPGERATLSCRASQSVSRYLGWYQQKPGQAPRLLIYGASTRATGIPDRFSGSGSGTDFTLTITRLEPEDFAVYYCQQYGSSPWTFGQGTKVEIKRTVAAPSVFIFPPSDEQLKSGTASVVCLLNNFYPREAKVQWKVDNALQSGNSQESVTEQDSKDSTYSLSSTLTLSKADYEKHKVYACEVTHQGLSSPVTKSFNRGEC	–	–	–	–	no binding (tested: 0.00003 µg/ml to 10 µg/ml)	no binding (tested: 0.00003 µg/ml to 10 µg/ml)

Source: US20220267443A1 (AGENUS, published 2022)
